Reference: publication PMC4336329 (PLoS ONE, 2015)
About 2,200 (0.71%) of roughly 310,000 compounds showed an effect of 50% or more. The effect is printed as a negative number. Some of the results follow.

What follows are compounds tested against human ether-à-go-go-related gene (hERG) potassium channel (human, UniProt Q12809) (assay: primary screen, population patch clamp on CHO cells stably expressing hERG).
human ether-à-go-go-related gene (hERG) potassium channel, sequence (Q12809 whole entry, looked up): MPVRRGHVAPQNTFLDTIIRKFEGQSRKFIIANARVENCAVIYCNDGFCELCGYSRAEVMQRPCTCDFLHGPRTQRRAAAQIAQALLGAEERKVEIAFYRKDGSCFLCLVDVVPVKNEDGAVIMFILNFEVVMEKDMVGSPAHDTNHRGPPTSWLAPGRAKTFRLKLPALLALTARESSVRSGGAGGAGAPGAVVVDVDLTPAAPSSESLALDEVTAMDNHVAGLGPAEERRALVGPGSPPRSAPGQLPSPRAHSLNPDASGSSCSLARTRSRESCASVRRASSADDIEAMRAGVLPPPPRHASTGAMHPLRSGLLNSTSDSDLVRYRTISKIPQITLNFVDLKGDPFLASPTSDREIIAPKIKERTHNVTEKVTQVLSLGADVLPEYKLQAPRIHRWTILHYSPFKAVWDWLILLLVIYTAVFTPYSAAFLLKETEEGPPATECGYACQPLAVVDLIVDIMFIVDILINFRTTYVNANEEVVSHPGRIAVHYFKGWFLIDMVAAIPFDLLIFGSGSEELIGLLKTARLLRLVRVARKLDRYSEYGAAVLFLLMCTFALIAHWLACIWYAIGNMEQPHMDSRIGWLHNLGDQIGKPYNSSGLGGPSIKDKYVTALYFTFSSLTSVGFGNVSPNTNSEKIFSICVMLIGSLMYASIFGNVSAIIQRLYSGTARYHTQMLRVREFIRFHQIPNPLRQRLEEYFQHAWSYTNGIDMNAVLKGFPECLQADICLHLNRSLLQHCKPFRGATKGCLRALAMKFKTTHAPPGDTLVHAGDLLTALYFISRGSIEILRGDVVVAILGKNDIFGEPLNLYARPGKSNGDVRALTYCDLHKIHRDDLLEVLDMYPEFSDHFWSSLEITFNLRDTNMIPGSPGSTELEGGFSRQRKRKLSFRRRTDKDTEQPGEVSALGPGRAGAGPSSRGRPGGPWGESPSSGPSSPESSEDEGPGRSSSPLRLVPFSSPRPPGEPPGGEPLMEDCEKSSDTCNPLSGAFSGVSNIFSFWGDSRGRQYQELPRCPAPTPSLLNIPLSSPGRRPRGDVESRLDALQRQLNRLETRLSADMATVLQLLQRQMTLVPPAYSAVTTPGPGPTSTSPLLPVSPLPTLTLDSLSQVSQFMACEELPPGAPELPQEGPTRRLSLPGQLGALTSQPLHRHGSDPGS

Compound	hERG current change (%, negative = inhibition) at 1uM [%]
CC1CCCCC1NC(=O)CN1C(=O)COc2ccccc21 (centres unmarked)	15.1
Cc1ccccc1NC(=O)c1nnn(-c2ccc3c(c2)OCCO3)c1N	12.1
O=C(CCS(=O)(=O)c1ccc(F)cc1)Nc1ccc(N2CCN(Cc3ccccc3)CC2)cc1	6.38
COc1ccc(NC2=NCCC(=O)N2Cc2cccs2)cc1.Cl	9.24
CCOCCCN(C(=O)c1snc(C(N)=O)c1N)C(C(=O)NCCC(C)C)c1ccc(Cl)cc1 (centres unmarked)	-8.18
O=C(CNC(=O)c1ccc(Br)cc1)OCc1cc([N+](=O)[O-])cc2c1OCOC2	15.4
CCCCN(C)CCNC(=O)c1ccc2c(c1)NC(=O)C(N1CCCCC1)S2 (centres unmarked)	5.12
CNC(=O)N(C1=NCCCCC1)c1ccc(Br)cc1	14.6
O=C(COC(=O)CCC(=O)c1ccc(Cl)cc1)NCc1ccco1	8.1
COc1ccc(CCCc2nnc(SCC(=O)Nc3ccccc3F)o2)cc1	11.1
COc1ccc(NS(=O)(=O)c2cccc(NC(=O)NCCCl)c2)cc1	10.4
COc1cccc(/C=C/C(=O)Nc2ccc(C(=O)Nc3cccc(S(N)(=O)=O)c3)cc2)c1OC	20.3
Cc1cc(NC(=O)COC(=O)C2CCN(S(=O)(=O)c3ccccc3)CC2)c([N+](=O)[O-])cc1C	-18.6
Clc1ccccc1OCc1nnc(-c2ccccc2Br)o1	15.5
C/C=C/C(O)c1ccc2ccccc2c1 (centres unmarked)	15.7
CCOC(=O)C1C(=O)NC(c2ccccc2)=NC1c1ccc(F)cc1 (centres unmarked)	11.9
COc1ccc(NC(=O)Cc2coc3cc(C)c(C(C)C)cc23)cc1S(=O)(=O)N1CCOCC1	12.3
CC(=O)Nc1c(O)nc(SCC(=O)Nc2nnc(CC(C)C)s2)[nH]c1=O	16.2
Cc1ccc(OCc2nnc(NC(=O)c3ccco3)s2)cc1	13
CCOC(=O)c1c(O)c2ccccc2n(C)c1=O	5.52
COc1ccc(C(=O)N2C[C@H]3C[C@@H](C2)c2cccc(=O)n2C3)cc1OC	11.9
COc1ccc2oc(=O)c(/C(C)=N/NC(=O)c3ccncc3)cc2c1	-1.21

Compound	hERG current change (%, negative = inhibition) at 1uM [%]
CC(OCCN1CCCC1)(c1ccc(F)cc1)c1ccc(F)cc1.Cl	-23.6
Cc1nn2c(NCCN(C)C)c3c(nc2c1-c1ccccc1)CCCC3	-0.734
COc1cc(NC(=S)N2CCN(CCO)CC2)c(OC)cc1Cl	9.26
Cc1ccccc1S(=O)(=O)Oc1ccccc1C(=O)Oc1ccccc1	3.47
O=c1cc(-c2ccccc2)c2cc(Cl)c(O)c(CN3CCOCC3)c2o1	0.0878
c1ccc2oc(-c3ccn[nH]3)cc2c1	8.14
Cc1cc(C)c(NC(=O)C2CCCN(S(=O)(=O)c3c(C)noc3/C=C/N(C)C)C2)c(C)c1 (centres unmarked)	7.6
Nc1ccc(-c2nc3ccc(N)cc3s2)cc1	4.59
O=C(CN1C(=O)/C(=C\C=C\c2ccccc2)SC1=S)Nc1ccc(F)cc1	14.8
Cc1ccccc1NC(=O)Cn1c(O)c(N=NC(=O)c2ccccc2O)c2ccccc21	14.1
CCN(CC(=O)Nc1c(F)cccc1F)C(=O)c1cc(S(=O)(=O)N(C)C)ccc1N1CCCC1	8.66
O=C(Nc1ccc(O)cc1C(=O)O)c1ccc2c(c1)C(=O)N(Cc1ccco1)C2=O	-7.57
c1cncc(CNc2ncnc3sccc23)c1	14
CCCn1c2c(c(=N)c3c1CCC3)CCCC2.I	6.36
Cc1ccc(-c2cc(C(F)(F)F)nn2-c2ccc(S(N)(=O)=O)cc2)cc1	13.8
CC12CCC(=O)N1C(C(=O)NCCc1ccc(F)cc1)CS2 (centres unmarked)	15.5
CCC(CC)c1nnc(NC(=O)CSCC(=O)Nc2cc(C)on2)s1	12.8
CC(Oc1ccc(Br)cc1Br)C(=O)Nc1cccnc1Cl (centres unmarked)	13.7
O=[N+]([O-])c1cccc(CSC2=NCCN2S(=O)(=O)c2ccccc2)c1	7.97
O=C(CSc1nnc(COc2ccc(Cl)cc2)n1Cc1ccco1)c1ccccc1F	11.8
O=C(CSc1ncnc2c1oc1ccccc12)NCc1ccc(F)cc1	13.4
COc1ccc(/C=C2\Oc3cc(OCC(=O)N4CCC(C(=O)O)CC4)ccc3C2=O)c(OC)c1OC	11.5

Compound	hERG current change (%, negative = inhibition) at 1uM [%]
CCS(=O)(=O)c1ccc(O)c(NC(=O)COc2ccc(C)cc2)c1	5.5
COc1ccccc1N1CCN(C(=S)Nc2ccc3nc(N4CCOCC4)cc(C)c3c2)CC1	2.41
CCCc1[nH]n(-c2ccc(F)cc2)c(=O)c1C=Nc1cccc(F)c1	16.9
Nc1ccc(S(=O)(=O)Nc2nccs2)cc1	14.4
CN(C)CCC(Oc1ccccc1OCc1ccccc1)c1ccccc1.O=C(O)C(=O)O (centres unmarked)	-7.34
COc1ccc(NC(C)=O)cc1NC(=O)c1cccc(C(F)(F)F)c1	11.4
COC(=O)C1=C(C)N(c2ccc(F)cc2)C(=O)C1	-7.72
Cl.Nc1cccc(Oc2c(F)c(F)c(Oc3cccc(N)c3)c(F)c2F)c1	13.1
O=C(CCS(=O)(=O)c1ccccc1)Nc1ccccc1N1CCOCC1	-1.59
CC1CC(C)CN(C(=O)C(C)N(C)CC(=O)Nc2ccc(F)cc2)C1 (centres unmarked)	1.53
Cl.Oc1ccccc1Nc1nc(NCC2CCCO2)c2ccccc2n1 (centres unmarked)	-8.48
Cc1cc(=O)[nH]c2ccc(S(=O)(=O)Nc3ccc(O)cc3)cc12	18.2
CCc1ccc(NC(=O)CSc2ccc(-c3cccnc3)nn2)cc1	-1.22
CCOC(=O)C1(Cc2ccccc2C(F)(F)F)CCN(C2CCC2)CC1	-20.3
COc1ccc(NC(=O)c2ccc(CN3CCc4ccccc4C3)cc2)cc1OC	15.6
O=c1c(-c2cccc(Cl)c2)c[nH]n1-c1ccccc1	17.6
CC(=O)c1sc(NC(=O)c2cc(-c3ccccc3)nn2-c2ccccc2)nc1C	9.74
Cc1c(Cl)cccc1N1C(=O)C(N2C(=O)c3cccc([N+](=O)[O-])c3C2=O)C1c1cccs1 (centres unmarked)	8.07
Cc1ccc(C(=O)COC(=O)c2cc(=O)[nH]c3ccccc23)cc1C	15.6
CN(C)c1ccnc2sc3c(=O)n(Cc4ccccc4)cnc3c12	-19.5
CC(C)c1c(O)nc(SCC(=O)Nc2ccc3c(c2)CCC3)[nH]c1=O	4.86
COc1ccc(-c2nnn(CC(=O)N(CC3CCCO3)C(C(=O)NC(C)(C)C)c3ccco3)n2)cc1OC (centres unmarked)	12.7

Compound	hERG current change (%, negative = inhibition) at 1uM [%]
O=C1c2ccccc2N2C(=O)c3ccccc3C2N1Cc1ccccc1 (centres unmarked)	-2.03
CN1C(=O)/C(=C/c2ccc(-c3ccccc3[N+](=O)[O-])o2)SC1=Nc1ccc(Cl)c(C(=O)O)c1	13.2
COc1ccc(CC(=O)NCc2cccs2)cc1	3.95
Cc1ccc(C(=O)N2CCc3ccccc3C2)cc1S(=O)(=O)N1CCOCC1	8.77
CC1CCN(C(=O)Cn2c(=O)n(CCCC(=O)NCc3ccco3)c(=O)c3sccc32)CC1	6.32
Cc1cc(C)c2cc(C#N)c(NCCCNC(=O)CCC(=O)O)nc2c1	9.04
O=C(O)/C(=C\c1ccc(Cl)cc1)c1ccc(S(=O)(=O)N2CCCC2)s1	-6.96
O=C(COc1ccccc1)NC(=S)Nc1ccc2c3c(cccc13)CC2	8.69
CN(c1ccccc1C(=O)Nc1ccc2c(c1)OCCO2)S(C)(=O)=O	-6.61
O=C1Nc2ccccc2C1(O)C/C(=N/O)c1ccccc1 (centres unmarked)	13.5
CSCCC(NC(=O)c1ccccc1Br)C(=O)NCCCn1nc(C)cc1C (centres unmarked)	1.59
CCOC(=O)C1=C(COC(=O)c2c(OC)cccc2OC)NC(=O)NC1C (centres unmarked)	8.27
Cc1ccc(-c2cc(C(F)(F)F)n3ncc(C(=O)NCc4ccco4)c3n2)cc1	-7.58
O=C(O)CSc1nnc(-c2ccncc2)n1CCc1ccccc1	9.45
O=C(NCCN1CCNC1=O)C1CCC(=O)N(Cc2ccccc2F)C1 (centres unmarked)	-1.3
CC1=C(C(=O)Nc2cccc(C(=O)NC3CCCCC3C)c2)SCCO1 (centres unmarked)	4.75
COCCNC(=O)C1CCN(S(=O)(=O)N2CCC3(CC2)OCCO3)CC1	15.6
O=C(CC(c1ccccc1)c1ccco1)N1CCOCC1 (centres unmarked)	3.02
CCOC(=O)c1c(CSc2ccc(CC)cc2)oc2ccc(O)c(CN(C)C)c12.Cl	8.79
O=C(Cn1c(=O)cnc2ccccc21)N1CCN(S(=O)(=O)c2ccccc2Br)CC1	36.9
